Publication PMC12040169 (PLOS Biology, 2025)
The other results are listed elsewhere or left out.

system: T1, C. trachomatis L2/434/Bu expressing GFP (CTL2-GFP); set-up: species or system HeLa; C. trachomatis total inclusion area by high-content imaging, normalised to DMSO; conditions: total inclusion area; 28.5 h, 10 µM; inhibitor
T1 construct: L2/434/Bu GFP intracellular growth in HeLa cells
How it was run: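 After bulk GFP and resorufin fluorescence reads, cells were fixed, stained with Hoechst and imaged by high-content microscopy. Inclusion area and number (GFP) stood in for chlamydial growth, nuclei count (Hoechst) for host cell viability. MICs were derived as for the bulk readout.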

SMILES	% of control remaining
O=C1/C(=N\O)c2ccccc2N1Cc1ccccc1 [CBK288484]	94.4046
Cc1ccc(S(=O)(=O)NNC(=O)COc2cccc3cccnc23)cc1 [CBK268788]	73.9657
S=C(NCCc1ccccn1)NCCN1CCOCC1 [CBK268296]	106.539
Cc1ccc(CNS(=O)(=O)c2ccc3ccccc3c2)cc1 [CBK266501]	79.3522
Nc1ncc(-c2cccc(F)c2)nc1Nc1ccc2[nH]ccc2c1 [CBK063851]	116.137
COc1ccccc1CN(C)C(C)C(=O)Nc1ccc(NC(C)=O)cc1 (stereo not drawn) [CBK305873]	52.6276
COCC(=O)N1CCc2nc(-c3ccc(F)cc3)sc2C1 [CBK281673]	62.92
NC1CC(c2cc(NCCOc3ccccc3Cl)ncn2)C1 (stereo not drawn) [CBK307167]	61.5421
O=C(CCn1c(C(F)F)cc2cccnc21)NCc1ccccn1 [CBK285068]	110.487
c1ccc(OCCSc2cc(N3CCCC3)ncn2)cc1 [CBK103689]	80.6817
Cc1cccnc1C(Cc1ccsc1)NC(=O)Cn1ccnc1 (stereo not drawn) [CBK284802]	102.504
CC1CCc2onc(C(=O)NCc3nccn3C)c2C1 (stereo not drawn) [CBK281514]	86.7934
O=C(NCCCn1ccnc1)C1CCN(C(=O)c2cccc(Cl)c2)CC1 [CBK307596]	75.972
CCC1CCCCN1Cc1nc2c(c(=O)n(C)c(=O)n2C)n1CCCO (stereo not drawn) [CBK269365]	118.292
CCc1nn(CC(=O)NCC2CC2)c(=O)c2cc3sc(C)cc3n12 [CBK284100]	75.85
FC(F)(F)c1cccc(CSc2nccnc2N2CCCC2)c1 [CBK107178]	76.7906
Cn1ccnc1SCCNC(=O)c1cccc(Cn2cccn2)c1 [CBK282112]	70.2163
CC(=O)Nc1nc(-c2ccccc2C)ccc1C(=O)N(C)C [CBK106328]	88.4936
Cc1ccc(-c2cc(C(=O)NCCCn3ccnc3)no2)cc1 [CBK268200]	91.9018
Cc1nccn1CC1CCCN(Cc2nc3ccccc3[nH]2)C1 (stereo not drawn) [CBK281619]	99.0608
O=C(c1cccc(Br)c1)N1CCN(S(=O)(=O)N2CCOCC2)CC1 [CBK267470]	110.916
Cc1nc(N)nc(N2CCN(C)CC2)n1 [CBK015681]	87.8268
CC1CCN(C(=O)C2CCCCC2C(=O)O)CC1 (stereo not drawn) [CBK028392]	111.373
O=C(C[n+]1ccccc1)c1ccccc1Cl [CBK016283B]	19.5552
CCn1c(CCCNC=O)nc2ccccc21 [CBK269551]	76.1231
O=C(c1ccco1)N1CCN(c2cc(-c3cc(C(F)(F)F)cc(C(F)(F)F)c3)ncn2)CC1 [CBK037734]	81.4573
CC1=[N+]([O-])C2(N)CCc3nonc3C2(O)C1 (stereo not drawn) [CBK261513]	97.6489

SMILES	% of control remaining
O=C(Nc1ccc(Cl)cc1Cl)C1CC2CCC1C2 (stereo not drawn) [CBK058237]	38.7208
O=C(O)CN1/C(=C\C=C2/SC(=S)N(c3ccccc3)C2=O)Sc2ccccc21 [CBK265251]	120.581
COc1ncc(-c2nccnc2OCC2COc3ccccc3O2)c(OC)n1 (stereo not drawn) [CBK106754]	106.272
CSCCC(=O)Nc1ccc2c(ccn2Cc2ccccc2)c1 [CBK159732]	39.6042
Cc1ccc(NC(=O)C(=O)NCCCn2ccnc2)cc1C [CBK264157]	117.593
Cn1c(SCCCN2C(=O)c3cccc4cccc(c34)C2=O)nnc1-c1ccncc1 [CBK268951]	100.629
COc1ccc(/C=C/c2nc3ccccc3s2)cc1S(=O)(=O)N1CCOCC1 [CBK269373]	96.5358
CC[C@@H](Cn1ncc2ccccc2c1=O)NC(=O)CC1c2ccccc2Oc2ccccc21 [CBK286174]	115.094
O=C(c1cnc2ccccc2c1)N1CCc2ccccc21 [CBK200284]	117.419
N#Cc1c(N)nc(SCC(=O)O)c(C#N)c1-c1ccc(O)cc1 [CBK261270]	103.396
O=C(O)CC1SC(N/N=C/c2ccco2)=NC1=O (stereo not drawn) [CBK261371]	89.9176
COc1ccc(Nc2cn(C)nc2C(=O)O)cc1 [CBK269814]	69.6302
COc1ccc(NC(=O)CSc2nc(O)cc(-c3ccccc3)n2)cc1OC [CBK263657]	110.937
O=C(O)c1ccc(N2C(=O)CC(N3CCN(Cc4ccccc4)CC3)C2=O)cc1 (stereo not drawn) [CBK261403]	90.241
COC(CNC(=O)N(C)Cc1nncn1C(C)C)c1cccs1 (stereo not drawn) [CBK306556]	69.2884
CCn1c(C)nc2cc(C(=O)NC3CCCOC3)ccc21 (stereo not drawn) [CBK282066]	104.733
O=S(=O)(Nc1nnn[nH]1)c1ccc(-c2ccccn2)s1 [CBK062589]	85.2262
CC(C)(C)OC(=O)NCCNC(=O)c1cccnc1NCc1ccc2c(c1)OCO2 [CBK160117]	97.748
OCCN1CCN(c2cncc(-c3cccc(OC(F)(F)F)c3)n2)CC1 [CBK065941]	84.1156
O=C(O)C1C2C=CC(C2)C1C(=O)N1CCc2ccccc21 (stereo not drawn) [CBK286537]	143.246
COc1ccc(Cl)cc1NC(=O)CSc1nc2cc3ccccc3cc2[nH]1 [CBK268410]	40.7484
Cc1ccc(C2C(C(=O)c3ccccc3)=C(O)C(=O)N2CCC(=O)O)cc1 (stereo not drawn) [CBK286642]	62.5321
Cc1cc(NC(=O)CN(C)c2ncccc2C#N)no1 [CBK304182]	97.9398
CCN(CC)C(=O)c1[nH]c2ccccc2c1NS(=O)(=O)Cc1ccccc1 [CBK050107]	76.6338
COc1ccnc(N2CCN(C(=O)c3cnn(C)c3)CC2)n1 [CBK306125]	46.1175
COc1cc(/C=C2/C(=O)N(c3ccc(Cl)c(C(=O)O)c3)N=C2C)ccc1Oc1nc2c(c(=O)n(C)c(=O)n2C)n1C [CBK262962]	104.426
CC(=O)Nc1ccc(S(=O)(=O)Nc2ccc(CC#N)cc2)cc1Cl [CBK044058]	83.863
